# Measurements published in PubChem BioAssay AID624296 (National Center for Advancing Translational Sciences (NCATS), 2012).
# The campaign covered roughly 350,000 compounds. About 9,900 (2.8%) were called active. This list was built around the results that the source calls inconclusive (neither active nor inactive); the mix of calls is not that of the screen. Calls follow the shape of the dose curve; as a rule, active = well fitted activation curve with a large enough effect; inconclusive = small, poorly fitted or top-dose-only effect; inactive = no such curve, though single readings can be large or run the other way. No potency is given beside an inconclusive call; the fits are too rough.
# Assay: A quantitative high throughput screen for small molecules that induce DNA re-replication in MCF 10a normal breast cells. Also: nearly all actives have a fitted effect of over 50% in size.
# Conditions: MCF 10A DNA re-replication, Hoechst nuclear intensity, 48 h; series mostly up to 46.1 µM
# Potency is read from the fitted curve at half-maximal effect; tags tell the direction and shape of the fitted curve.
row,Structure (SMILES),Potency
1,O=C(Nc1cccc(C(F)(F)F)c1)c1ccc(Cn2cc(Br)cn2)o1,"inconclusive [activator, partial curve, poor fit]"
2,COc1ccc(NC(=O)CSC2=C(C#N)C(c3ccco3)C3=C(CCCC3=O)N2)c(OC)c1 (stereo not drawn),"inconclusive [activator, single point]"
3,CC(C)c1nc2sc3c(SCC(N)=O)ncnc3c2c2c1CCC2,"inconclusive [activator, single point]"
4,O=S(=O)(c1ccc(Cl)cc1)N1CCN(C(=S)Nc2ccc(F)c(Cl)c2)CC1,"inconclusive [activator, single point]"
5,COc1ccccc1N1CCN(C(=O)c2cn(Cc3ccccc3)nc2-c2cccnc2)CC1,inactive
6,Cc1nn(Cc2ccc(F)cc2)c(C)c1NC(=O)c1cnn2c1NC(c1cccs1)CC2C(F)(F)F (stereo not drawn),inactive
7,COc1ccccc1CNC(=O)CCCC(=O)n1nc(C)c2ccccc21,"inconclusive [activator, partial curve, poor fit]"
8,COc1ccc(SCCN2CC[C@@H](C(C)(C)C)CCC2=O)cc1,active: 9.2 µM
9,CC1(C)Cc2c(c(N3CCOCC3)nc3sc(C(=O)Nc4ccccc4)c(N)c23)CO1,inactive
10,CCCCN1CC(O)=C(c2nc(-c3ccc(Br)cc3)cs2)C1=N,"inconclusive [activator, single point]"
11,CC1=CC(=C(c2ccc(N)cc2)c2ccc(N)cc2)C=CC1=N,inactive
12,COc1ccc(Cc2nnc(N/N=C/c3ccc(O)cc3O)[nH]c2=O)cc1OC,"inconclusive [activator, single point]"
13,O=C(/C=C/c1ccc(OC(F)F)cc1)Nc1cccc(S(=O)(=O)NC2=NCCCCC2)c1,"inconclusive [activator, partial curve, poor fit]"
14,CCn1c(SCC(=O)N/N=C/C(C)=C\c2ccco2)nnc1-c1ccccc1,"inconclusive [activator, single point]"
15,O=c1cc(-c2cccc(F)c2)oc2ccccc12,inactive
16,CCN(CC)CCCN(Cc1cc2cc3c(cc2[nH]c1=O)OCCO3)C(=O)Nc1ccccc1,inactive
17,COc1ccc(CNC(=O)C[C@H]2C[C@H](C(=O)N(C(C)C)C(C)C)[C@@]3(C)c4[nH]c5ccc(Cl)cc5c4CCN3C2=O)cc1OC,"inconclusive [activator, partial curve, poor fit]"
18,COc1ccc(-n2nc3c(N4CCC(C(=O)NCC(C)c5ccccc5)CC4)nnc(C)c3c2C)cc1 (stereo not drawn),"inconclusive [activator, partial curve, poor fit]"
19,CN(C)c1nc(N)c2ncc(=S)[nH]c2n1,active: 29.1 µM
20,CCOC(=O)c1sc2nc(C)nc(NCc3ccc(Cl)cc3)c2c1C,inactive
21,N#Cc1ccc(CSc2nnc(-c3c[nH]c4ccccc34)n2-c2ccccc2)cc1,inactive
22,CC(/C=N/n1c(COc2ccccc2)n[nH]c1=S)=C\c1ccccc1,"inconclusive [activator, single point]"
23,Cc1cc(Cl)ccc1-n1c(-c2cccnc2)n[nH]c1=S,inactive

row,Structure (SMILES),Potency
1,O=C(NCCC(=O)N1O[C@@H]2C=C[C@H]1C2)OCC1c2ccccc2-c2ccccc21,"inconclusive [activator, single point]"
2,COc1ccc(NC(=O)CSCC(=O)Nc2nnc(CC(C)C)s2)cc1,inactive
3,Cc1ccc(NC(=O)COC(=O)c2cc(Cl)ccc2Cl)c(Br)c1,"inconclusive [activator, single point]"
4,CNC(=O)c1sc(N2N=C3/C(=C/c4ccccc4)CCCC3C2c2ccccc2)nc1C (stereo not drawn),"inconclusive [activator, partial curve]"
5,COc1ccc(CN(CC(O)COCc2ccccc2)S(=O)(=O)c2ccccc2Br)cc1OC (stereo not drawn),"inconclusive [activator, single point]"
6,CN1CCN(C(=O)C23CC4CC(C2)CC(c2ccccc2)(C4)C3)CC1,"inconclusive [activator, full curve]"
7,COc1ccc(Cl)cc1N1CC(C(=O)Nc2nccs2)CC1=O (stereo not drawn),"inconclusive [activator, single point]"
8,CC(/C=C1\N=C(SCc2ccccc2Cl)SC1=O)=C\c1ccccc1,"inconclusive [activator, single point]"
9,CCOC(=O)C1=C(c2ccccc2)NC(=O)NC1c1ccc(OC)cc1OC (stereo not drawn),"inconclusive [activator, single point]"
10,CC(=O)/C(=N\Nc1ccc(Cl)cc1Cl)Sc1cccc2cccnc12,"inconclusive [activator, single point]"
11,CN1CCC(Nc2ncc3ncnc(Nc4ccc(F)c(Cl)c4)c3n2)CC1,active: 3.35 µM
12,O=C(Nc1cccc(-c2cccc(Cl)c2)c1)C1CCN(Cc2ccccn2)CC1,inactive
13,CCSc1nnc(NC(=O)C(CC)(C(F)(F)F)C(F)(F)F)s1,"inconclusive [activator, single point]"
14,CCOC(=O)/C=C/C(=O)OCC(=O)NC(c1ccccc1)c1ccccc1,"inconclusive [activator, partial curve, poor fit]"
15,O=C(Nc1cccc2c1CCCC2)c1ccc(Cl)c([N+](=O)[O-])c1,"inconclusive [activator, single point]"
16,C=CCN1C(=O)C(Cc2cccc(C)c2)SC1=Nc1ccc(C(=O)O)cc1 (stereo not drawn),inactive
17,CCC(C)(C)NC(=O)C(c1ccc(C)cc1)N(Cc1ccco1)C(=O)Cn1nnc2ccccc21 (stereo not drawn),"inconclusive [activator, partial curve, poor fit]"
18,Cc1ccc(Nc2nnc(SC/C(O)=C(\C#N)c3nc4ccccc4[nH]3)s2)c(C)c1,"inconclusive [activator, single point]"
19,COc1cccc(NC(=S)N(CCN(C)C)C(C)c2ccco2)c1 (stereo not drawn),inactive
20,COc1cc(OC)cc(C(=O)Nc2cccc(N3CCCC3)c2)c1,"inconclusive [activator, single point]"
21,Cc1noc(C)c1S(=O)(=O)N1CCCC(C(=O)NCCC2=CCCCC2)C1 (stereo not drawn),"inconclusive [activator, partial curve, poor fit]"
22,O=C(CSc1nnc(-c2ccncc2)n1Cc1ccco1)Nc1nc(-c2ccccc2)cs1,"inconclusive [activator, partial curve, poor fit]"
23,COc1cc(NC(=O)CCn2c(=S)oc3ccccc32)cc(OC)c1OC,inactive

row,Structure (SMILES),Potency
1,Cc1ccccc1Nc1nc(-c2sc(NC(=O)c3ccco3)nc2C)cs1,inactive
2,COC(=O)c1cc(S(=O)(=O)NC2CCCCC2)cn1C,"inconclusive [activator, single point]"
3,COc1ccc([N+](=O)[O-])cc1NC(=O)CSc1nc(C)cc(C)n1,"inconclusive [activator, single point]"
4,Cc1ccc(NC(=O)c2ccc(S(=O)(=O)NCc3ccco3)cc2)cc1,"inconclusive [activator, single point]"
5,CCN(CC)S(=O)(=O)c1ccc2c(c1)NC(=O)C1CCCN21 (stereo not drawn),"inconclusive [activator, single point]"
6,N=c1c(C(=O)NCC2CCCO2)cc2c(=O)n3ccccc3nc2n1Cc1ccccc1Cl (stereo not drawn),active: 3.26 µM
7,FC(F)Oc1ccc(NC(=S)NC2CCCCCCC2)cc1,inactive
8,O=C(COC(=O)Cc1ccc(S(=O)(=O)N2CCOCC2)s1)Nc1ccccc1Cl,inactive
9,Cc1cc(N2CCN(C(c3ccccc3)c3ccc(Cl)cc3)CC2)n2ncnc2n1 (stereo not drawn),"inconclusive [activator, single point]"
10,CCN(CC)c1nc(Nc2ccccc2)nc(Oc2ccc(C(=O)OC)cc2)n1,"inconclusive [activator, full curve]"
11,CC1CCN(Cc2c(C(=O)O)nnn2-c2nonc2N)CC1,"inconclusive [activator, full curve, poor fit]"
12,CCCCC12CN3CC(C)(CN(C1)C3c1ccc([N+](=O)[O-])o1)C2=O (stereo not drawn),inactive
13,N=c1n(CCc2ccccc2)c2ccccc2n1Cc1ccccc1F,"inconclusive [activator, partial curve, poor fit]"
14,CC(C)Cn1c(N)c(C(=O)COC(=O)c2ccccc2C(=O)c2ccccc2)c(=O)n(C)c1=O,"inconclusive [activator, full curve]"
15,CCOC(=O)c1cnc(SCC(=O)OC)nc1N,inactive
16,O=C(COC(=O)CCc1nc2ccccc2c(=O)[nH]1)NC(=O)NC1CCCC1,"inconclusive [activator, single point]"
17,COc1ccccc1CN(Cc1nc2ccccc2c(=O)[nH]1)C(=O)Nc1ccccc1C,"inconclusive [activator, single point]"
18,COCCNc1nnc(Cc2ccc(Cl)cc2)c(=O)[nH]1,inactive
19,Cc1ccc(OCCC(=O)OCC(=O)N2CC(=O)Nc3ccccc32)cc1,"inconclusive [activator, single point]"
20,N#CCSc1nnc(C2CCCCC2)n1Cc1ccccc1,"inconclusive [activator, partial curve, poor fit]"
21,O=C(NCc1ccccc1)c1ccc2ccccc2n1,inactive
22,CC1(c2ccccc2)CC(C)(C)N2C(=O)C3(C(C#N)=C(N)Oc4cc(O)ccc43)c3cccc1c32 (stereo not drawn),"inconclusive [activator, partial curve, poor fit]"
